For the assay, the system named is S. pneumoniae ATCC 49619. Description: Intraperitoneal (IP) mouse infection model (ED50). It is filed as in vivo. Particulars: Streptococcus pneumoniae, ATCC49619, ip.
With `CC[C@H]1OC(=O)[C@H](C)[C@@H](O[C@H]2C[C@@](C)(OC)[C@@H](O)[C@H](C)O2)[C@H](C)[C@@H](O[C@@H]2O[C@H](C)C[C@H](N(C)C)[C@H]2O)[C@](C)(O)C[C@@H](C)CN(C)[C@H](C)[C@@H](O)[C@]1(C)O` [AZI, azithromycin], the 50% effective dose (ED50) came to 15 mg/kg.

`CC[C@H]1OC(=O)[C@@](C)(F)C(=O)[C@H](C)[C@@H](OC2OC(C)CC(N(C)C)C2O)[C@@](C)(OC)C[C@@H](C)C(=O)[C@H](C)[C@H]2N(CCCCn3cc(-c4cccc(N)c4)nn3)C(=O)O[C@]12C` (stereo partly drawn) [CEM-101, 11-N-4-(3-aminophenyl)-[1,2,3]triazol-1-yl]-butyl}-5-desosaminyl-3-oxo-2-fluoro-erythronolide A,-11,12-cyclic carbamate] gave an ED50 of 2.5 mg/kg.

For the compound `CC[C@H]1OC(=O)[C@H](C)C(=O)[C@H](C)[C@@H](O[C@@H]2O[C@H](C)C[C@H](N(C)C)[C@H]2O)[C@](C)(OC)C[C@@H](C)C(=O)[C@H](C)[C@H]2N(CCCCn3cnc(-c4cccnc4)c3)C(=O)O[C@]12C` [TEL, telithromycin], it took a dose of 1 mg/kg to reach the 50% effect level (ED50).

For orientation: ED50 means the dose that gives a 50% effect, or the effect in half of the subjects. The low end stands for an effect at a small dose, the high end for a need for a large dose.

Source of the values: US9901592B2 (priority 2008, dated 2018).
